From patent US12648574B2 (priority 2019, dated 2026) come the findings set out here.

Where two headings read alike, the source gives them in different places.

In assay [1] the test system is Pseudomonas syringae pv. actinidiae IVIA 3700.1.1. It is filed as cell-based.
Assay [2] deals with Pseudomonas syringae pv. tomato DC 3000. It is filed as cell-based.
Assay [3] relates to Pseudomonas syringae pv. actinidiae IVIA 3700.1.1. The procedure:
(§1) The efficacy of the product was evaluated against the following 5 phytopathogenic strains from the CIDSAV collection of quarantine pathogens, from European foci of infection or from Spanish type collections. The tested product comprised eucalyptus oil in sufficient amount to have 20% w/v of 1,8-cineole (measured by HPLC) and was stored at room temperature.
(§2) The inocula were obtained from the pure culture of the actively growing strains after seeding in LB agar medium and incubation at 28° C. for 24 hours. Each bacterial suspension was prepared at a final concentration of 1×10^8 CFU/ml.
(§3) The bactericidal activity of 5 doses of the product was evaluated. For each phytopathogen, different concentrations were tested depending on the results previously obtained in the evaluation of antimicrobial activity (example 2).
(§4) In addition, the effect of the product was compared with that of the antibiotic streptomycin at a concentration of 100 mg/L. An untreated control was also added, where the product was replaced by sterile distilled water. […]
(§5) The multiwell plates were incubated at 28° C. in constant agitation (150 rpm). At 30 minutes (min) and 2 hours (h) of exposure of the bacteria with the products, their survival was analyzed by counting viable in plaque. The colony-forming units (CFUs) were counted at 48 h after incubation at 28° C. determining the survival (CFU/ml) of each phytopathogenic bacterium for each treatment, and were compared with those obtained in the untreated control. Three repetitions were analyzed for each treatment.
(§6) From the survival (CFU/ml) obtained in each treatment, the minimum bactericidal concentration (MBC) and the dose that is lethal for half of a bacterial population (LD50) were determined. […]
(§7) The bactericidal activity of the different concentrations of the product against E. amylovora, X. arboricola pv. pruni, X. axonopodis pv. vesicatoria, P. syringae pv. actinidiae and P. syringae pv. tomato was evaluated by a contact test, where a suspension of each bacterium was incubated with each concentration of the product and samples were taken after 30 and 120 min. […]

For assay [4], the system named is Pseudomonas syringae pv. tomato DC 3000. The procedure: as §1, §2, §3, §4, §5, §6, §7

In the case of `[H]/N=C(/N)N[C@H]1[C@H](O)[C@@H](O)[C@H](O[C@@H]2O[C@@H](C)[C@](O)(C=O)[C@H]2O[C@@H]2O[C@@H](CO)[C@H](O)[C@@H](O)[C@@H]2NC)[C@@H](N/C(N)=N\[H])[C@@H]1O` [streptomycin], the bacterial growth entry in assay [1] and in assay [2] was “−” in each case. For the same compound, the growth after contact entry in assay [3], in assay [4] and in assay [4] (2 hours) was “no growth” each time.
